“And” between values parts separate entries of the source, which are not always exact repeats. Equal entries are not always repeated. Out of some 380,000 compounds screened, about 4,000 (1.1%) were called active. This list was built around the results that the source calls inconclusive (neither active nor inactive); the mix of calls is not that of the screen. The call rests on the fitted dose curve; in most records, active means well fitted activation curve with a large enough effect; inconclusive means small, poorly fitted or top-dose-only effect; inactive means no such curve, though single readings can be large or run the other way. Where the call is inconclusive, the potency comes from a doubtful curve fit.
Experiment: qHTS Assay to Identify Small Molecule Activators of BRCA1 Expression; further: nearly all actives have a fitted effect of over 80% in size
Conditions: MCF7-BRCA1-FFLuc reporter, luminescence, 48 h; activation: at 46.1 µM (top of the series), scaled: vehicle 0%, 10 µM genistein 100% unless noted
How it was run: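 Reporter cells (MCF7, BRCA1 promoter-firefly luciferase) received library compounds across a concentration series for 48 h. End-point luminescence was measured and concentration-effect curves derived after normalization.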
In the case of `Cc1ccc(NC(=S)Nc2ccc(Br)cc2)cc1`, the Potency is reported as inconclusive: 20 µM [activator, partial curve, poor fit]. With `COc1cc(S(=O)(=O)NC2CCCCC2)ccc1Cl` the “activation” value was inactive: -25.8%. For `O=C1c2ccccc2C(=O)N1Cc1ccccc1F`, the “activation” value was inactive: -4.53%. For `O=C(NNC(=O)c1cc2ccccc2cc1O)c1cccs1`, the “activation” value was inactive: 14.2%. For `Cc1ccc(C(C(=O)NC2CCCCC2)N(CCC(C)C)C(=O)CNC(=O)c2ccco2)o1` (centres undefined), the “activation” value was inactive: -3.56%. With `COC(C(=O)N1CCC(n2nccc2NC(=O)C2CC2)CC1)c1ccccc1` (centres undefined) the Potency was inconclusive: 35.5 µM [activator, single point]. For `Cc1ccc(NC(=O)c2ccc3c(c2)nnn3C)cc1`, the Potency was active: 7.08 µM. In the case of `O=C(Oc1ccc(-c2cnc3ccccc3n2)cc1)c1ccc(Cl)c([N+](=O)[O-])c1`, the Potency is reported as inconclusive: 3.16 µM [activator, partial curve, poor fit]. For `O=C(NNc1c([N+](=O)[O-])cc(C(F)(F)F)cc1[N+](=O)[O-])c1ccco1`, the “activation” value was inactive: -41.6%. With `COc1cc(/C=C/C(=O)OCC(=O)N2CCN(S(=O)(=O)c3ccc(C)cc3C)CC2)ccc1O` the “activation” value was inactive: -39.4%. In the case of `O=c1c2ccccc2[nH]c2ccccc12`, the “activation” value is reported as inactive: 31.2%. In the case of `COC(=O)C(C)Oc1ccc(Cl)c(CN2OCC(C)(C)C2=O)c1` (centres undefined), the “activation” value is reported as inactive: -0.84%. For `NS(=O)(=O)c1cccc(NC(=O)c2ccc3nc[nH]c3c2)c1`, the “activation” value was inactive: -13.4%. In the case of `CCCc1cc(C(=O)NCC(C)C)no1`, the Potency is reported as inconclusive: 22.4 µM [activator, single point]. For `c1ccc2[nH]c(NN=C3CCCCCC3)nc2c1`, the Potency was inconclusive: 12.6 µM [activator, single point]. In the case of `Cc1ccc(NC(=O)CCC(=O)c2cccs2)c(O)c1`, the Potency is reported as active: 11.2 µM. With `COC(=O)c1scc(C#N)c1N/N=C(\C#N)S(=O)(=O)c1ccc(Cl)cc1` the “activation” value was inactive: -11.9%. In the case of `C/C(N)=C(/C#N)C(=O)CSc1n[nH]c(-c2ccccc2Br)n1`, the Potency is reported as inconclusive: 20 µM [activator, partial curve, poor fit] and inconclusive: 12.6 µM [activator, partial curve, poor fit]. In the case of `CCN(C(=O)c1ccco1)c1nnc(-c2ccc(OC)cc2)s1`, the Potency is reported as inconclusive: 0.794 µM [activator, full curve, poor fit]. With `CCn1c(SCC(=O)Nc2ccc(C(C)=O)cc2)nc2ccccc21` the Potency was inconclusive: 14.1 µM [activator, partial curve, poor fit]. In the case of `CC(C)(C)c1nnc(NC(=O)c2ccc3c(c2)OCO3)s1`, the Potency is reported as inconclusive: 1.78 µM [activator, full curve, poor fit]. For `Cc1nc(-c2ccc(C(=O)Nc3cccc(Br)c3)cc2)cs1`, the Potency was inconclusive: 1.78 µM [activator, full curve, poor fit]. In the case of `CC(C=NNc1ccc([N+](=O)[O-])cn1)=Cc1ccccc1`, the Potency is reported as inconclusive: 0.562 µM [activator, full curve, poor fit]. In the case of `CCS(=O)(=O)Nc1ccc(C(=O)NCCSc2ccccc2)cc1`, the Potency is reported as inconclusive: 14.1 µM [activator, partial curve, poor fit]. In the case of `CCc1cc(-c2ccc3c(c2)COc2c4ccccc4nn2-3)on1`, the “activation” value is reported as inactive: 29.7%. For `NC(=O)c1ccsc1NC(=O)COC(=O)c1ccccn1`, the “activation” value was inactive: 25.9%. For `O=c1cc(-c2ccccc2)oc2ccc(Cl)cc12`, the Potency was inconclusive: 1.58 µM [activator, partial curve, poor fit]. With `O=C(Cc1ccccc1)N/N=C/c1ccc2c(c1)OCO2` the Potency was active: 1.26 µM. In the case of `Cc1cccc(Cn2c(=O)n(Cc3ccccc3)c(=O)c3sc4ccccc4c32)c1`, the “activation” value is reported as inactive: 3.04%. With `Cc1nc2ccc(NC(=S)NC3CCCCC3)cc2nc1C` the Potency was inconclusive: 14.1 µM [activator, partial curve, poor fit]. In the case of `COC(=O)C1CCCCN1C(=O)c1ccc2oc(Cc3ccccc3)nc2c1` (centres undefined), the Potency is reported as inconclusive: 17.8 µM [activator, partial curve, poor fit]. For `O=C(Nc1ccc(CN2CCOCC2)cc1)c1ccc2ccccc2c1`, the Potency was inconclusive: 2.51 µM [activator, partial curve, poor fit]. In the case of `COc1ccc(COC[C@H](C)[C@H](O)[C@@H](C)[C@H]2OC(=O)[C@@H]2C)cc1`, the “activation” value is reported as inactive: 16.3%. In the case of `Cc1nn(-c2ccc(N3CCCCC3)nn2)c(C)c1CCC(=O)Nc1ccc(F)c(F)c1`, the Potency is reported as active: 2.24 µM. With `COc1ccc(OCCN2C(=O)c3cccc(N)c3C2=O)cc1` the Potency was inconclusive: 17.8 µM [activator, partial curve, poor fit]. For `O=C1NC[C@H](CC2CCCCC2)N(CCc2cccc3ccccc23)C1=O`, the “activation” value was inactive: -6.76%. For `Oc1cccc(Nc2ncnc3c2oc2ccccc23)c1`, the Potency was inconclusive: 1.26 µM [activator, partial curve, poor fit]. In the case of `COc1ccccc1NC(=O)C(=O)c1cn(CC(=O)N2CCOCC2)c2ccccc12`, the Potency is reported as inconclusive: 12.6 µM [activator, partial curve, poor fit]. For `O=C(NNC(=O)c1ccccc1Cl)c1ccc2c(c1)OCCO2`, the Potency was active: 7.08 µM. With `Oc1ccccc1/C=N/N1CCN(c2ccccn2)CC1` the Potency was active: 10 µM. In the case of `CC(=O)c1sc(N/N=C\c2ccc(Br)cc2)nc1C`, the Potency is reported as active: 3.55 µM. For `Cc1ccc(NC(=O)C2C3CCCCC32)cc1[N+](=O)[O-]` (centres undefined), the Potency was inconclusive: 11.2 µM [activator, partial curve, poor fit]. With `CNCc1cc(Cl)cc(OC)c1OC(C)C` the “activation” value was inactive: 25.1%. In the case of `CC(C)c1ccc(/C=C/C(=O)Nc2nncs2)cc1`, the Potency is reported as inconclusive: 35.5 µM [activator, single point]. For `Cc1cccc(NC(=O)COc2ccc3oc4c(c3c2)CCCC4)c1`, the “activation” value was inactive: 16.4%. For `Cc1cccc(-n2c(C)n[nH]c2=S)c1`, the “activation” value was inactive: -0.228%. With `O=C(Cc1cccs1)Nc1ccc(S(=O)(=O)N2CCCCC2)cc1` the “activation” value was inactive: -23.7%. With `CC(=O)c1ccc(NC(=O)CSC(=S)N2CCCC2)cc1` the Potency was inconclusive: 10 µM [activator, partial curve, poor fit]. For `COc1ccc2c(c1)CC/C(=C/c1ccco1)C2=O`, the Potency was active: 3.55 µM.

From PubChem BioAssay AID624202 (National Center for Advancing Translational Sciences (NCATS), 2012)
Potency means the concentration at half of the fitted maximal effect; tags describe the fitted curve by direction and shape.
